Data from PubChem BioAssay (Tox21).
Where “and” joins values, the source holds several entries; their conditions need not be identical. Equal values may be shown once. The inconclusive results got no clear call from the source; some entries with a clear call stand among them for comparison. For part of these data: A potency beside an inconclusive call is a rough fit, not a confirmed value. More than one record can exist for a structure, and the calls need not agree. Calls of active or inactive are those of the source. Unless noted, the call rests on the fitted dose curve; in most records, active means well fitted curve in the direction sought with a large enough effect in the repeat runs; inconclusive means weak or mixed curves; inactive means no such curve, though single readings can be large; an effect the other way counts as inactive or inconclusive.

What was measured:
[1] = qHTS assay to identify small molecule agonists of H2AX (AID 1224845; active means well fitted activation curve with a large enough effect in the signal ratio in the repeat runs, not every such curve was filed as active; inconclusive means weak or mixed curves; the % refers to the signal ratio; further: potency means the concentration at half of the fitted maximal effect; on activation (H2AX phosphorylation): on the % scale 0 is the no-effect control and ±100 the full control effect); conditions: CHO-K1 phospho-H2AX Ser139 HTRF, 3 h; activation (H2AX phosphorylation): at 154 µM (top of the series) unless noted
Method in brief: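 Phospho-H2AX Ser139 measured by HTRF (ex 320 nm; em 665 and 620 nm) after 24 hr antibody incubation. Compounds, 15 concentrations, 0.76% DMSO, were applied to CHO-K1 cells for 3hr at 37C before lysis.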

[2] = qHTS assay to identify small molecule agonists of the hypoxia (HIF-1) signaling pathway (AID 1224846; active means well fitted activation curve with a large enough effect in the signal ratio in the repeat runs, not every such curve was filed as active; inconclusive means weak or mixed curves; the % refers to the signal ratio; further: potency means the concentration at half of the fitted maximal effect); conditions: HRE-bla ME-180 cells, beta-lactamase ratio, 17 h; activation: at 76.8 µM (top of the series) unless noted
Method in brief: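 Compounds added to ME-180 cells carrying hypoxia-response-element beta-lactamase reporter (0.5% dialyzed FBS, 5 h preplating), 17 h at 37C; agonist activity detected by CCF4-AM B/G FRET read-out.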

[3] = qHTS assay to identify small molecule agonists of H2AX - cell viability counter screen (AID 1224847; calls by dose curve; further: nearly all actives have a fitted effect of over 30% in size; further: potency means the concentration at half of the fitted maximal effect; on activity change, negative = cytotoxicity: top concentration of the series differs between compounds; on the % scale 0 is the no-effect control and ±100 the full control effect)
Method in brief: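 Quantitative HTS viability measurement: CHO-K1 wild-type cells in serum (10% FBS) medium, short 3 hr drug exposure at 37C with 0.76% DMSO, CellTiter-Glo luminescent detection.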

[4] = qHTS assay to identify small molecule agonists of the estrogen related receptor (ERR) signaling pathway from Tox21 library (AID 1224849; calls by dose curve; further: on the % scale 0 is the no-effect control and ±100 the full control effect; nearly all actives have a fitted effect of over 15% in size); conditions: ERR reporter cell line, ONE-Glo luciferase, 18 h
Method in brief: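 Luminescent agonist read-out (One-Glo, 30-minute room-temperature incubation) following 18-hour compound treatment at 37 C of the ERR cell line, which had been plated 6 hours before dosing.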

[5] = qHTS RealTime-Glo MT Cell Viability Assay in HepG2 cells - 40 hour (AID 1224870); further: potency means the concentration at half of the fitted maximal effect; nearly all actives have a fitted effect of over 50% in size
Method in brief: (§1)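 Real-time viability: cells seeded at 600 per well together with NanoLuc and cell-permeant prosubstrate, compounds added after 5 h incubation. Luminescence tracked at 0, 8, 16, 24, 32 and 40 h of exposure.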

[6] = qHTS RealTime-Glo MT Cell Viability Assay in HEK293 cells - 16 hour (AID 1224872); further: potency means the concentration at half of the fitted maximal effect; nearly all actives have a fitted effect of over 50% in size
Method in brief: (§2)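 Viability tracked continuously by luminescence as live cells reduce a prosubstrate for NanoLuc; HEK293 cells preincubated 5 h, compound-treated at 37 C, and read at 0, 8, 16, 24, 32 and 40 h.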

[7] = qHTS RealTime-Glo MT Cell Viability Assay in HepG2 cells - 8 hour (AID 1224873); further: potency means the concentration at half of the fitted maximal effect; nearly all actives have a fitted effect of over 55% in size
Method in brief: as §1

[8] = qHTS RealTime-Glo MT Cell Viability Assay in HEK293 cells - 40 hour (AID 1224874); conditions: RealTime-Glo luminescence; max response: hits give low values; further: nearly all actives have a fitted effect of over 50% in size; further: potency means the concentration at half of the fitted maximal effect; on max response: on the % scale 0 is the no-effect control and ±100 the full control effect
Method in brief: (§3)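 Luminescence, which tracks viable cell number through reduction of the prosubstrate to a NanoLuc substrate, was read over continuous 37 C culture. Cells (600/well) were premixed with reagent and rested 5 h before 23 nL of compound in DMSO was pinned.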

[9] = A CellTox Green Cytotoxicity Assay to monitor cytotoxicity in HepG2 cells - 16 hour (AID 1224876); further: potency means the concentration at half of the fitted maximal effect; nearly all actives have a fitted effect of over 45% in size
Method in brief: (§4)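 Real-time cytotoxicity: fluorescence of a cell-impermeant cyanine dye binding DNA of dead HepG2 cells, measured repeatedly (0–40 h) during compound exposure at 37 C. Cells seeded 600/well with reagent, dosed after 5 h.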

[10] = A CellTox Green Cytotoxicity Assay to monitor cytotoxicity in HEK293 cells - 32 hour (AID 1224881); further: potency means the concentration at half of the fitted maximal effect; nearly all actives have a fitted effect of over 40% in size
Method in brief: (§5)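 Fluorescence from a DNA-binding dye excluded by viable cells was measured repeatedly in the same HEK293 wells (600 cells/well) during continuous compound exposure at 37 C. Each assay gives one read point: 0, 8, 16, 24, 32 or 40 h.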

[11] = qHTS assay to identify small molecule antagonists of the estrogen related receptor (ERR) signaling pathway from Tox21 library (AID 1224848); further: potency means the concentration at half of the fitted maximal effect; nearly all actives have a fitted effect of over 50% in size
Method in brief: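 ERR cell line, 2,000 cells/well. 6 h settle, then compound (DMSO) added; 18 h at 37 C; ONE-Glo luminescence after 30 min RT.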

[12] = qHTS RealTime-Glo MT Cell Viability Assay in HepG2 cells - 24 hour (AID 1224867)
Method in brief: (§6)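 Viability was tracked continuously by NanoLuc luminescence from prosubstrate reduced by living HepG2 cells, at successive time points over 40 h of compound exposure. Cells with reagent were preincubated 5 h at 37 °C before compound addition.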

[13] = A CellTox Green Cytotoxicity Assay to monitor cytotoxicity in HepG2 cells - 24 hour (AID 1224878); further: nearly all actives have a fitted effect of over 45% in size; further: potency means the concentration at half of the fitted maximal effect; on Cytotoxicity: on the % scale 0 is the no-effect control and ±100 the full control effect
Method in brief: as §4

[14] = qHTS RealTime-Glo MT Cell Viability Assay in HEK293 cells - 0 hour (AID 1224880); further: potency means the concentration at half of the fitted maximal effect; nearly all actives have a fitted effect of over 45% in size
Method in brief: as §3

[15] = qHTS RealTime-Glo MT Cell Viability Assay in HEK293 cells - 32 hour (AID 1224868)
Method in brief: as §2

[16] = A CellTox Green Cytotoxicity Assay to monitor cytotoxicity in HEK293 cells - 24 hour (AID 1224875); further: potency means the concentration at half of the fitted maximal effect; nearly all actives have a fitted effect of over 45% in size
Method in brief: as §5

[17] = qHTS RealTime-Glo MT Cell Viability Assay in HepG2 cells - 32 hour (AID 1224877); further: potency means the concentration at half of the fitted maximal effect; nearly all actives have a fitted effect of over 55% in size
Method in brief: as §6

[18] = A CellTox Green Cytotoxicity Assay to monitor cytotoxicity in HepG2 cells - 40 hour (AID 1224879); further: nearly all actives have a fitted effect of over 40% in size; further: potency means the concentration at half of the fitted maximal effect
Method in brief: as §4

[19] = A CellTox Green Cytotoxicity Assay to monitor cytotoxicity in HEK293 cells - 40 hour (AID 1224871); further: nearly all actives have a fitted effect of over 45% in size; further: potency means the concentration at half of the fitted maximal effect
Method in brief: as §5
Tags describe the fitted curve by direction and shape or compound fluorescence and quenching.

c1ccc2[nH]ccc2c1
inactive: activity change, positive = activation ([4]; at 42.5 µM (top of the series)) 11.1% | activity change, positive = activation ([4]; at 92.4 µM (top of the series)) -76.8% and 0.106% | max response [8] 8.38% and -1.27%
active: Potency [5] 3.41 µM | Potency [6] 2.15 µM | Potency [8] 2.15 µM | Potency [9] 21.5 µM | Potency [10] 6.81 µM
inconclusive: Potency [1] 99.1 µM [falling, partial curve] | Potency [2] 5.41 µM [falling, full curve] | Potency [3] 111 µM [cytotoxic, single point] | Potency [7] 6.81 µM [falling, full curve]

COc1cccc(-c2ccc(/C=C\CN3CCCCCC3)cc2Cl)c1
inconclusive: Potency [1] 79.6 µM [activator, partial curve] | Potency [2] 48.7 µM | Potency [11] 38.4 µM [inhibitor, partial curve] | Potency [7] 43.4 µM [falling, partial curve] | Potency [14] 21.8 µM [rising, full curve]
active: Potency [3] 89.3 µM | Potency [12] 43.4 µM | Potency [5] 43.4 µM | Potency [6] 43.4 µM | Potency [13] 43.4 µM | Potency [10] 43.4 µM

O=C1Cc2cc(CCN3CCN(c4nsc5ccccc45)CC3)c(Cl)cc2N1
inconclusive: activation (H2AX phosphorylation) [1] 9.74% [at 70.9 µM] | Potency [2] 26.8 µM | Potency [3] 55.2 µM [cytotoxic, single point] | Potency [12] 21.3 µM [falling, single point] | Potency [15] 26.8 µM [cytotoxic, single point] | Potency [7] 23.9 µM [falling, partial curve, poor fit] | Potency [8] 26.8 µM [cytotoxic, single point] | Potency [16] 26.8 µM [activator, single point] | Potency [9] 26.8 µM [activator, single point] | Potency [17] 21.3 µM [cytotoxic, single point] | Potency [13] 26.8 µM [activator, single point] | Potency [18] 26.8 µM [activator, single point] | Potency [10] 26.8 µM [activator, single point]

O=C1c2c(O)ccc(O)c2C(=O)c2c(NCCNCCO)ccc(NCCNCCO)c21
inactive: Potency [19] | Potency [18]
active: Potency [12] 9.52 µM | Potency [17] 8.49 µM
inconclusive: Potency [1] 22 µM [falling, partial curve] | Potency [2] 9.52 µM [falling, partial curve] | Potency [3] 55.2 µM [cytotoxic, single point]

CCCCCCC(C)Nc1ccc(Nc2ccccc2)cc1 (configuration not stated)
inconclusive: Potency [1] 63.5 µM [falling, partial curve] | Potency [2] 49 µM [falling, partial curve] | Potency [3] 101 µM [cytotoxic, partial curve, poor fit] | Potency [12] 49 µM [falling, partial curve] | Potency [5] 49 µM [falling, partial curve, poor fit] | Potency [19] 54.9 µM [activator, single point] | Potency [7] 54.9 µM [falling, partial curve] | Potency [17] 49 µM [cytotoxic, partial curve] | Potency [14] 4.9 µM [falling, full curve]

CCCN(CCC)c1c([N+](=O)[O-])cc(C(F)(F)F)c(N)c1[N+](=O)[O-]
inconclusive: Potency [2] 19.4 µM [falling, full curve] | Potency [9] 54.8 µM [activator, single point] | Potency [13] 54.8 µM [activator, single point]
active: Potency [1] 35.6 µM | Potency [3] 50.4 µM | Potency [11] 30.5 µM | Potency [12] 54.8 µM | Potency [7] 48.9 µM | Potency [17] 48.9 µM | Potency [18] 54.8 µM

S=C(SSSSSSC(=S)N1CCCCC1)N1CCCCC1
inconclusive: Potency [1] 14 µM [falling, partial curve] | Potency [2] 3.04 µM | Potency [12] 13.6 µM [falling, single point] | Potency [15] 0.215 µM [cytotoxic, full curve, poor fit] | Potency [7] 12.1 µM [falling, single point] | Potency [16] 13.6 µM [activator, single point] | Potency [18] 13.6 µM [activator, partial curve, poor fit] | Potency [10] 2.71 µM [activator, partial curve, poor fit]
inactive: activity change, negative = cytotoxicity [3] -11.5% [at 31.6 µM] | cytotoxicity [13] -0.0697% [at 15.8 µM]
